Data on one substance can be found in PMC10320511.

Chains of the proteins cited; added tags and fusions are not shown.
UniProt Q01371: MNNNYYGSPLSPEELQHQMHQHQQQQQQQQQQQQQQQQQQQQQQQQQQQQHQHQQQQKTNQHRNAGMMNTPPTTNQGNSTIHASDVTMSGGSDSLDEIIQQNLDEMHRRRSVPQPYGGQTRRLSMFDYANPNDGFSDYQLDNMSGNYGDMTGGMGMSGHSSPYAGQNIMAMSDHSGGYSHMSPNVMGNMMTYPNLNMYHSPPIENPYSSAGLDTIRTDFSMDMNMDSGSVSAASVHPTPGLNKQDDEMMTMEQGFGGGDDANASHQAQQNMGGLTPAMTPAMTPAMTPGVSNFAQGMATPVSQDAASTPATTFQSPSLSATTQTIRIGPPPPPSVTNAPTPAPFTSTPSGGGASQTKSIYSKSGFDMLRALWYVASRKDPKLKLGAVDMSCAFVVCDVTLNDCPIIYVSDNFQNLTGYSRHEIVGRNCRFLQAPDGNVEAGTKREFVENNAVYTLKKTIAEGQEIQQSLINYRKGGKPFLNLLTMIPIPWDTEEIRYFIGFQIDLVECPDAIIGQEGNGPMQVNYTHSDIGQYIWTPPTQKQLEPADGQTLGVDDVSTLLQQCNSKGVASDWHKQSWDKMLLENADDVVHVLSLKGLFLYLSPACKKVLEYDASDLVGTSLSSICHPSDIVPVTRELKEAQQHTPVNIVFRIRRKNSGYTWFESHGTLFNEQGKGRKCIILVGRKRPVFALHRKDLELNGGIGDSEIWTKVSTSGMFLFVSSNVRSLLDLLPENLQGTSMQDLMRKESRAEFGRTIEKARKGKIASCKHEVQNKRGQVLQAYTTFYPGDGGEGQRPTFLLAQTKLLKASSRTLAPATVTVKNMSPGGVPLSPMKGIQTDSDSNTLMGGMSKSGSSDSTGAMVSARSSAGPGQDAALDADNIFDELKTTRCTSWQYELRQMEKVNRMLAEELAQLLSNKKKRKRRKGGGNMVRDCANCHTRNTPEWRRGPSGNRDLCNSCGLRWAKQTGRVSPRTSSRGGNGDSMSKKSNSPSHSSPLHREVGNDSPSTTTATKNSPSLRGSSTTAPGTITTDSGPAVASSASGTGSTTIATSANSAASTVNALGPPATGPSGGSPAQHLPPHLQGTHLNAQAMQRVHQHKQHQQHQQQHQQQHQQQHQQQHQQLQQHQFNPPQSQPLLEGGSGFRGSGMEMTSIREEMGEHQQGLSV

Holding throughout (experiment): co-IP; V5H6-tagged FRQ (wild type or mutant) pulled down with V5 agarose from Neurospora lysate (cultures in the light, 25 °C); 50 mM Hepes pH 7.4, 137 mM NaCl, 10% glycerol, 0.4% NP-40; 4 °C, 2 h; Western blot with FRQ, FRH, WC-1 and WC-2 antibodies
In general terms: A western blot detects proteins with antibodies after separation by electrophoresis.

The target of test [1] is T1, FRQ 559–989, V5H6-tagged (Neurospora crassa) (UniProt P19970).
T1 sequence: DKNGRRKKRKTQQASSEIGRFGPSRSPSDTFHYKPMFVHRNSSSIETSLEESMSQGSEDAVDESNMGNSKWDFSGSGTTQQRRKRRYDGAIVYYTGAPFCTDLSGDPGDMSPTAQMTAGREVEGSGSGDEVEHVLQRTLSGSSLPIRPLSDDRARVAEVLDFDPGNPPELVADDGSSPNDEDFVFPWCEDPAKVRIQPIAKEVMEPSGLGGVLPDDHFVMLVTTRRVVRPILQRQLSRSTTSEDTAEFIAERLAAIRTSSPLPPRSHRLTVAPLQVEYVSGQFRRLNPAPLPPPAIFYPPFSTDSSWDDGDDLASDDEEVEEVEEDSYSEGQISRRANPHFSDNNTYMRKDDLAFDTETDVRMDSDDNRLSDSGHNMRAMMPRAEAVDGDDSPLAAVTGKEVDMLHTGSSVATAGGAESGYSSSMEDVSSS

The target in test [2] is T2, FRQ D664A, D667A, V5H6-tagged (Neurospora crassa) (UniProt P19970).
T2 sequence: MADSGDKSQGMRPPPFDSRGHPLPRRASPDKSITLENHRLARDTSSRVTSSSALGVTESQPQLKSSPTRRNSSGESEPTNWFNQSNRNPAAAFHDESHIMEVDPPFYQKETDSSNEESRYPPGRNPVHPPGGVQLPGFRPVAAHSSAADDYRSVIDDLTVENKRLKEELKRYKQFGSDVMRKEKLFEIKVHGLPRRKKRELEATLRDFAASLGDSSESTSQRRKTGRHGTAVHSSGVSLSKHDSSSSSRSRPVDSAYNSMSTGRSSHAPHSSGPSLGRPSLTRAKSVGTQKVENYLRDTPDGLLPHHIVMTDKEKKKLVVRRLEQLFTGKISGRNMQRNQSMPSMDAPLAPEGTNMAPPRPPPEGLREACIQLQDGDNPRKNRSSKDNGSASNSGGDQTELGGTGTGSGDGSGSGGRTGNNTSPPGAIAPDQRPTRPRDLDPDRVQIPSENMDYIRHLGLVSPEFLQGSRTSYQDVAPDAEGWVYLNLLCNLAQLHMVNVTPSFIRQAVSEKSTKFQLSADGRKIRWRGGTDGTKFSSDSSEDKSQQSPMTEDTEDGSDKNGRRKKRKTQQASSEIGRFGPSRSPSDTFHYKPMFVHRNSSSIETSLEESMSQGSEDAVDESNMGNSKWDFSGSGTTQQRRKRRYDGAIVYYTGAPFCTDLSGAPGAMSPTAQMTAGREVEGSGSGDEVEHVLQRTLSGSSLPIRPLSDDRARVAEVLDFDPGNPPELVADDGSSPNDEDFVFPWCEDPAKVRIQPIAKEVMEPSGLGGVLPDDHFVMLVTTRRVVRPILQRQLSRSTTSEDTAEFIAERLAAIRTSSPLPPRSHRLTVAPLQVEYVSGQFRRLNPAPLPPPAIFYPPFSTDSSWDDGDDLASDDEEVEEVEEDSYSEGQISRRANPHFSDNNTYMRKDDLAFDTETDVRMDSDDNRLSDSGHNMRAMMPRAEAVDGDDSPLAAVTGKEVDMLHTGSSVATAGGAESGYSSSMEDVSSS

The target in test [3] is T3, FRQ Δ647–690, V5H6-tagged (Neurospora crassa) (UniProt P19970).
T3 sequence: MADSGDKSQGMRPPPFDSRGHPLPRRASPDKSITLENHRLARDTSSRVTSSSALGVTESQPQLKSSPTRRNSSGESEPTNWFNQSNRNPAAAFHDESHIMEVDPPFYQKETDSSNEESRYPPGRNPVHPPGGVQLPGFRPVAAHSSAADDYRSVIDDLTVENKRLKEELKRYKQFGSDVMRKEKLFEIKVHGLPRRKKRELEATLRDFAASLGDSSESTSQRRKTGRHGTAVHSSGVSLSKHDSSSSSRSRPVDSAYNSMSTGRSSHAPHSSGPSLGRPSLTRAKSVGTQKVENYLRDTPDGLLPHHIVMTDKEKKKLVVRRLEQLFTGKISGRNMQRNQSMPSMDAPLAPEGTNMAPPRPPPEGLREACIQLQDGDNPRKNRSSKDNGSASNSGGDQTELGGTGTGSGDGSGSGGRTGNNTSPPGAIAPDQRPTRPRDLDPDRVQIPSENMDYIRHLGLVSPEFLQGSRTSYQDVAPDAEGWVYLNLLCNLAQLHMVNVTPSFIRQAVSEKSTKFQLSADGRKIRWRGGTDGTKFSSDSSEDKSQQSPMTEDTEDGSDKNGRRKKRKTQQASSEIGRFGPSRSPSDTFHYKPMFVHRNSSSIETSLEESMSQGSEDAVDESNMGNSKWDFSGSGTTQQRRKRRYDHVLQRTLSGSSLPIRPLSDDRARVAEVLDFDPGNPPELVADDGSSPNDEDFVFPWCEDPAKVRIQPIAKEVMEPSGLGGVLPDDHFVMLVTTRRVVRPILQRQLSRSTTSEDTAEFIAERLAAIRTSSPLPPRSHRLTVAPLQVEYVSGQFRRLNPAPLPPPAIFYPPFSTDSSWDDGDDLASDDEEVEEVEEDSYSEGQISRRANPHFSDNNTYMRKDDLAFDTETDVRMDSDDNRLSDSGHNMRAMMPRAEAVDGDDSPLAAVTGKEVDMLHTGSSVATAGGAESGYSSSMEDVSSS

No constants are given. Whether binding was seen depends on the method and setting. In cells and extracts the contact can be indirect. Some results given as binding are weak or reduced against the parent protein; the word gives no strength. Where a sequence is shown, tags or fusion partners need not be part of it.

Regarding “White Collar-1 (WC-1) (from UniProt Q01371 1-1167)”, the results for the binding result in test [1], in test [2] and in test [3] were “no binding”, “binds weakly” and “no binding”, respectively.
